Measured values reported in the supplement of paper PMC8728848.
The other results are listed elsewhere or left out.

What was measured:
Experiment in all cases: glycan array binding signal (z-score within array); higher = stronger binding
Conditions in all cases: glycan notation: IUPAC condensed, linker removed
[1] = target: Gal(b1-4)GlcNAc(b1-3)Gal(b1-4)GlcNAc(b1-3)Gal(b1-4)GlcNAc
Method in brief: (§1)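 From the Consortium for Functional Glycomics database, 3228 arrays were curated, keeping only those whose protein sequence was available. Binding is given as a within-array Z-score averaged across arrays sharing a protein sequence and across linkers. Negative Z-scores can be read as non-binding.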

[2] = target: Gal(b1-4)GlcNAc(b1-3)Gal(b1-4)GlcNAc(b1-3)Gal(b1-4)GlcNAc(b1-2)Man(a1-3)[Gal(b1-4)GlcNAc(b1-3)Gal(b1-4)GlcNAc(b1-3)Gal(b1-4)GlcNAc(b1-2)Man(a1-6)]Man(b1-4)GlcNAc(b1-4)GlcNAc
Method in brief: as §1

[3] = target: Gal(b1-4)GlcNAc(b1-3)Gal(b1-4)GlcNAc(b1-3)Gal(b1-4)GlcNAc(b1-2)Man(a1-3)[Gal(b1-4)GlcNAc(b1-3)Gal(b1-4)GlcNAc(b1-3)Gal(b1-4)GlcNAc(b1-2)Man(a1-6)]Man(b1-4)GlcNAc(b1-4)[Fuc(a1-6)]GlcNAc
Method in brief: as §1

[4] = target: Gal(b1-4)GlcNAc(b1-3)Gal(b1-4)GlcNAc(b1-3)Gal(b1-4)GlcNAc(b1-2)[Gal(b1-4)GlcNAc(b1-3)Gal(b1-4)GlcNAc(b1-3)Gal(b1-4)GlcNAc(b1-6)]Man(a1-6)[Gal(b1-4)GlcNAc(b1-3)Gal(b1-4)GlcNAc(b1-3)Gal(b1-4)GlcNAc(b1-2)Man(a1-3)]Man(b1-4)GlcNAc(b1-4)[Fuc(a1-6)]GlcNAc
Method in brief: as §1

[5] = target: Gal(b1-4)GlcNAc(b1-3)Gal(b1-4)GlcNAc(b1-3)Gal(b1-4)GlcNAc(b1-3)Gal(b1-4)GlcNAc(b1-2)Man(a1-3)[Gal(b1-4)GlcNAc(b1-3)Gal(b1-4)GlcNAc(b1-3)Gal(b1-4)GlcNAc(b1-3)Gal(b1-4)GlcNAc(b1-2)Man(a1-6)]Man(b1-4)GlcNAc(b1-4)GlcNAc
Method in brief: as §1

[6] = target: Gal(b1-4)GlcNAc(b1-3)Gal(b1-4)GlcNAc(b1-3)Gal(b1-4)GlcNAc(b1-3)Gal(b1-4)GlcNAc(b1-2)Man(a1-3)[Gal(b1-4)GlcNAc(b1-3)Gal(b1-4)GlcNAc(b1-3)Gal(b1-4)GlcNAc(b1-3)Gal(b1-4)GlcNAc(b1-2)Man(a1-6)]Man(b1-4)GlcNAc(b1-4)[Fuc(a1-6)]GlcNAc
Method in brief: as §1

[7] = target: Gal(b1-4)GlcNAc(b1-3)Gal(b1-4)GlcNAc(b1-3)Gal(b1-4)GlcNAc(b1-3)Gal(b1-4)GlcNAc(b1-2)[Gal(b1-4)GlcNAc(b1-3)Gal(b1-4)GlcNAc(b1-3)Gal(b1-4)GlcNAc(b1-3)Gal(b1-4)GlcNAc(b1-6)]Man(a1-6)[Gal(b1-4)GlcNAc(b1-3)Gal(b1-4)GlcNAc(b1-3)Gal(b1-4)GlcNAc(b1-3)Gal(b1-4)GlcNAc(b1-2)Man(a1-3)]Man(b1-4)GlcNAc(b1-4)[Fuc(a1-6)]GlcNAc
Method in brief: as §1

[8] = target: Gal(b1-4)GlcNAc(b1-3)Gal(b1-4)GlcNAc(b1-3)Gal(b1-4)GlcNAc(b1-3)Gal(b1-4)GlcNAc(b1-3)Gal(b1-4)GlcNAc(b1-2)Man(a1-3)[Gal(b1-4)GlcNAc(b1-3)Gal(b1-4)GlcNAc(b1-3)Gal(b1-4)GlcNAc(b1-3)Gal(b1-4)GlcNAc(b1-3)Gal(b1-4)GlcNAc(b1-2)Man(a1-6)]Man(b1-4)GlcNAc(b1-4)GlcNAc
Method in brief: as §1

[9] = target: Gal(b1-4)GlcNAc(b1-3)Gal(b1-4)GlcNAc(b1-3)Gal(b1-4)GlcNAc(b1-3)Gal(b1-4)GlcNAc(b1-3)Gal(b1-4)GlcNAc(b1-2)Man(a1-3)[Gal(b1-4)GlcNAc(b1-3)Gal(b1-4)GlcNAc(b1-3)Gal(b1-4)GlcNAc(b1-3)Gal(b1-4)GlcNAc(b1-3)Gal(b1-4)GlcNAc(b1-2)Man(a1-6)]Man(b1-4)GlcNAc(b1-4)[Fuc(a1-6)]GlcNAc
Method in brief: as §1

[10] = target: Gal(b1-4)GlcNAc(b1-3)Gal(b1-4)GlcNAc(b1-3)Gal(b1-4)GlcNAc(b1-3)Gal(b1-4)GlcNAc(b1-3)Gal(b1-4)GlcNAc(b1-2)[Gal(b1-4)GlcNAc(b1-3)Gal(b1-4)GlcNAc(b1-3)Gal(b1-4)GlcNAc(b1-3)Gal(b1-4)GlcNAc(b1-3)Gal(b1-4)GlcNAc(b1-6)]Man(a1-6)[Gal(b1-4)GlcNAc(b1-3)Gal(b1-4)GlcNAc(b1-3)Gal(b1-4)GlcNAc(b1-3)Gal(b1-4)GlcNAc(b1-3)Gal(b1-4)GlcNAc(b1-2)Man(a1-3)]Man(b1-4)GlcNAc(b1-4)[Fuc(a1-6)]GlcNAc
Method in brief: as §1

[11] = target: Gal(b1-4)GlcNAc(b1-3)Gal(b1-4)GlcNAc(b1-3)Gal(b1-4)GlcNAc(b1-3)Gal(b1-4)GlcNAc(b1-3)Gal(b1-4)GlcNAc(b1-3)Gal(b1-4)GlcNAc(b1-2)Man(a1-3)[Gal(b1-4)GlcNAc(b1-3)Gal(b1-4)GlcNAc(b1-3)Gal(b1-4)GlcNAc(b1-3)Gal(b1-4)GlcNAc(b1-3)Gal(b1-4)GlcNAc(b1-3)Gal(b1-4)GlcNAc(b1-2)Man(a1-6)]Man(b1-4)GlcNAc(b1-4)GlcNAc
Method in brief: as §1

[12] = target: Gal(b1-4)GlcNAc(b1-3)Gal(b1-4)GlcNAc(b1-3)GalNAc
Method in brief: as §1

[13] = target: Gal(b1-4)GlcNAc(b1-3)Gal(b1-4)GlcNAc(b1-3)[Gal(b1-4)GlcNAc(b1-3)Gal(b1-4)GlcNAc(b1-6)]GalNAc
Method in brief: as §1

[14] = target: Gal(b1-4)GlcNAc(b1-3)Gal(b1-4)GlcNAc(b1-6)[Gal(b1-3)]GalNAc
Method in brief: as §1

[15] = target: Gal(b1-4)GlcNAc(b1-3)Gal(b1-4)[Fuc(a1-3)]GlcNAc(b1-3)Gal(b1-4)[Fuc(a1-3)]GlcNAc
Method in brief: as §1

[16] = target: Gal(b1-4)GlcNAc(b1-3)GalNAc
Method in brief: as §1

[17] = target: Gal(b1-4)GlcNAc(b1-3)[Fuc(a1-3)GlcNAc(b1-6)]Gal(b1-4)Glc
Method in brief: as §1

[18] = target: Gal(b1-4)GlcNAc(b1-3)[Gal(b1-4)GlcNAc(b1-6)]Gal(b1-4)GlcNAc
Method in brief: as §1

[19] = target: Gal(b1-4)GlcNAc(b1-3)[GlcNAc(b1-6)]Gal(b1-4)GlcNAc
Method in brief: as §1

B1: DC-ASGPR-short (Homo sapiens) (protein)
chain: MTRTYENFQYLENKVKVQGFKNGPLPLQSLLQRLRSGPCHLLLSLGLGLLLLVIICVVGFQNSKFQRDLVTLRTDFSNFTSNTVAEIQALTSQGSSLEETIASLKAEVEGFKQERQAVHSEMLLRVQQLVQDLKKLTCQVATLNNNASTEGTCCPVNWVEHQDSCYWFSHSGMSWAEAEKYCQLKNAHLVVINSREEQNFVQKYLGSAYTWMGLSDPEGAWKWVDGTDYATGFQNWKPGQPDDWQGHGLGGGEDCAHFHPDGRWNDDVCQRPYHWVCEAGLGQTSQESH
- glycan array binding signal (z-score) [1]: -0.28
- glycan array binding signal (z-score) [2]: -0.221
- glycan array binding signal (z-score) [3]: -0.222
- glycan array binding signal (z-score) [4]: -0.198
- glycan array binding signal (z-score) [5]: -0.207
- glycan array binding signal (z-score) [6]: -0.235
- glycan array binding signal (z-score) [7]: -0.195
- glycan array binding signal (z-score) [8]: -0.155
- glycan array binding signal (z-score) [9]: -0.17
- glycan array binding signal (z-score) [10]: -0.147
- glycan array binding signal (z-score) [11]: -0.166
- glycan array binding signal (z-score) [12]: -0.277
- glycan array binding signal (z-score) [13]: -0.26
- glycan array binding signal (z-score) [14]: -0.258
- glycan array binding signal (z-score) [15]: -0.258
- glycan array binding signal (z-score) [16]: -0.281
- glycan array binding signal (z-score) [17]: -0.274
- glycan array binding signal (z-score) [18]: -0.282
- glycan array binding signal (z-score) [19]: -0.289
